Measurements reported in publication PMC4336329 (PLoS ONE, 2015).
About 14,000 (4.5%) of roughly 310,000 compounds showed an effect of 50% or more. The effect is printed as a negative number. The list shows a part of the results.

Target: human ether-à-go-go-related gene (hERG) potassium channel (human, UniProt Q12809)
Assay: primary screen, population patch clamp on CHO cells stably expressing hERG
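Further: peak tail current of the secondary pulse compared with the same well before compound.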

Sequence of human ether-à-go-go-related gene (hERG) potassium channel (Q12809 whole entry, looked up): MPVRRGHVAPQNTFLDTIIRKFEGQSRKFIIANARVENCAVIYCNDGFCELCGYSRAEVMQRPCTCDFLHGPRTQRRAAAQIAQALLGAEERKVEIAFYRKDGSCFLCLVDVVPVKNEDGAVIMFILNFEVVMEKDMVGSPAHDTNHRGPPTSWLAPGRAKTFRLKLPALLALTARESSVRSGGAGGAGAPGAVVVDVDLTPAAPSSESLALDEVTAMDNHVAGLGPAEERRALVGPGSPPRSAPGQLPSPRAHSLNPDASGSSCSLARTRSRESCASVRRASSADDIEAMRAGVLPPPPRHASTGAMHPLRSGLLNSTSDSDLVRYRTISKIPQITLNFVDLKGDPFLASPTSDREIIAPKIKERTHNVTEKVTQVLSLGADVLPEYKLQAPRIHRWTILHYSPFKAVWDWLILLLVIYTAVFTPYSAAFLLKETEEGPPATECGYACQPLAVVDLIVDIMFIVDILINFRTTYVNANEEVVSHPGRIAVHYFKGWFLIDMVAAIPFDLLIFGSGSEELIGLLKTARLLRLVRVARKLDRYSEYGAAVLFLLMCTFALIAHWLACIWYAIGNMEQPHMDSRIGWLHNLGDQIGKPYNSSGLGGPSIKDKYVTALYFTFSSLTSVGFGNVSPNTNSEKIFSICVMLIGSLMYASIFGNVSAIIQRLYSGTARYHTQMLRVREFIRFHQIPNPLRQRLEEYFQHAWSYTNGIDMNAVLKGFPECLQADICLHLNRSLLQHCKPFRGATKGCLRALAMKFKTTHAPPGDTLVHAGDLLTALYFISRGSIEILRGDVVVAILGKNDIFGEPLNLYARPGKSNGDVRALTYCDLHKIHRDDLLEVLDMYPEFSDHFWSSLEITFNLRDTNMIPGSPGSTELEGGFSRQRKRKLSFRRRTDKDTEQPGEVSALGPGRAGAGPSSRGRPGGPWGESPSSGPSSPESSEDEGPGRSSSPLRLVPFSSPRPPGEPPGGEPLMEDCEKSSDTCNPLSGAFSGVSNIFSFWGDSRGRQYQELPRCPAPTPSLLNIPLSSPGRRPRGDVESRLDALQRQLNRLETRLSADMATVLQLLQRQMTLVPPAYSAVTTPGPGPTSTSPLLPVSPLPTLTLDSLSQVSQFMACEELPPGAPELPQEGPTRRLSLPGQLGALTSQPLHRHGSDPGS

SMILES | hERG current change (%, negative = inhibition) at 10uM [%]
CCN1C(=O)N[C@@H](CCc2ccccc2)[C@H](C(=O)OC)[C@H]1C | 1.59
O=C(NC(=S)Nc1ccc(NC(=O)c2ccco2)cc1)c1ccccc1 | 16.4
Cc1ccc(S(=O)(=O)NCC(=O)NCC(=O)N(C)Cc2ccc3ccccc3c2)cc1C | 2.62
CCCNC(=O)COC(=O)/C=C/c1ccc(C)o1 | 5.06
COc1ccc(C(=O)Nc2ccc(N3CCCCCC3)cc2)cc1S(=O)(=O)N1CCOCC1 | -40.1
CCCCN(C)CCNC(=O)c1cc2c(=O)[nH]c3ccccc3c2n1C | -13.2
O=C(Cn1nc(Cc2ccncc2)c2ccccc2c1=O)N1CCc2ccccc2C1 | -44.4
O=C(NCc1ccc(Cl)cc1)C1CCN(S(=O)(=O)c2cccnc2)CC1 | -25.7
O=C(Nc1cccc2ccccc12)N1CCN(c2ccccc2)CC1 | -2.93
CC(C)O.COc1cc(/C=N/NC(=O)c2ccc(O)cc2)ccc1Oc1ccc([N+](=O)[O-])cn1 | -32
Cl.OC(COCCOc1ccc(Br)cc1)CN1CCCCC1 (centres unmarked) | -37.1
Cc1cc(C(F)F)n2nc(C(=O)O)nc2n1 | -0.987
CCOc1ccccc1NC(=O)C1Cc2ccccc2CN1S(C)(=O)=O (centres unmarked) | 8.4
Cn1cc(Br)c(C(=O)NN2C(=O)C3C(C2=O)C2C=CC3C23CC3)n1 (centres unmarked) | 39.6
CCNC(=O)CSc1nc2cc([N+](=O)[O-])ccc2n1-c1cccc(C(F)(F)F)c1 | -35.8
O=c1c2cc([N+](=O)[O-])ccc2nc2n1CCC2 | -7.93
CCCOc1ccc(N2C(=O)CC(N(CCc3ccc(OC)cc3)C(=O)/C=C/C(=O)O)C2=O)cc1 (centres unmarked) | 11.2
CCOc1ccc(/C=N/OCC(=O)Nc2ccc3c(c2)OCO3)cc1 | -40.5
COc1ccccc1C(=O)NCC(c1ccco1)N1CCc2ccccc21 (centres unmarked) | -6.41
CC1CCN(Cc2cc(=O)oc3ccc(C(C)C)cc23)CC1.Cl | 9.68
CCOc1ccc(CCNC(=O)COC(=O)CCS(=O)(=O)c2ccc(C)cc2)cc1OCC | 13.5
CSc1ncccc1C(=O)OCC(=O)NC(C)(C)C | 10.5

SMILES | hERG current change (%, negative = inhibition) at 10uM [%]
Cn1nnnc1Sc1ncnc2scc(-c3cc4ccccc4o3)c12 | 3.47
Cc1ccc(C)c(NC(=O)CN(C)C(=O)C2CCCC2)c1 | 15.9
Cc1cc(NC(=O)CSc2nc3c(C)cccc3cc2C)no1 | 17.7
CCN(CC(=O)NCCc1ccc(F)cc1)Cc1nc2ccccc2c(=O)[nH]1 | -50.7
COc1ccc(NC(=O)c2ccc3c(c2)C(=O)N(Cc2cccnc2)C3=O)cc1 | 10.9
CC(=NCc1ccco1)c1c(O)n(-c2ccccc2)c(=O)[nH]c1=O | 4.82
Cc1cccn2c(=O)c3cc(C(=O)NCCN4CCOCC4)n(C)c3nc12 | -3.18
CN(C)c1nc(OCCNC(=O)COc2ccc(Cl)cc2Cl)nc(N(C)C)n1 | -17.1
Cc1cc(C)c(NS(=O)(=O)c2ccc3c(c2)n(C)c(=O)n3C)c(C)c1 | 0.287
Cc1cccc(-n2cc(CN(C)Cc3nccn3C)c(-c3cccc(F)c3)n2)c1 | -6.01
S=C1COC(c2ccccc2)N1c1ccccc1 (centres unmarked) | 5.51
O=C(NCCCN1CCOCC1)c1cccnc1SCc1ccccc1Cl | -14.6
CCC(=O)c1ccc(OCC(O)CN2C(=O)NC(C)(C)C2=O)cc1 (centres unmarked) | 16.5
Cc1cccc(N2CCN(C3=NC(=O)/C(=C\c4cn[nH]c4-c4ccccc4)S3)CC2)c1 | 1.88
Cc1nc(SCC(=O)N(CC(C)C)C2CCS(=O)(=O)C2)c2ccccc2n1 (centres unmarked) | -3.83
COC(=O)c1ccc(C(=O)NC(=S)Nc2nc3c(s2)CCCC3)cc1 | 12.8
CCOC(=O)C1=C(O)c2ccccc2C(=O)/C1=C\c1ccc(C)cc1 | 15.3
Cc1cccc(C)c1NC(=O)N1CCC(n2c(=O)[nH]c3ccccc32)CC1 | 10.6
CCCCn1c(SCC(=O)N2CCOCC2)nc2c1c(=O)n(C)c(=O)n2C | -9.25
Cc1cccc(C(=O)Nc2ccc(Cl)cc2C(=O)c2ccccc2)c1 | 2.98
CC(C)Cn1cc(C(=O)NCc2cccs2)c2c3ccccc3n(C)c2c1=O | 1.7
Cn1c(=O)c2c(nc(N3CCCCCC3)n2CC(O)COc2ccc(Cl)cc2)n(C)c1=O (centres unmarked) | -15.9

SMILES | hERG current change (%, negative = inhibition) at 10uM [%]
COCCNC(=O)/C(C#N)=C/c1c(N2CCCCCC2)nc2ccccn2c1=O | 7.56
CN(c1ccc(O)cc1)c1nc(-c2cccnc2)cs1 | 11.9
COc1ccc(NC(=O)COC(=O)CNS(=O)(=O)c2ccc(C)cc2)c(OC)c1 | -5.57
Clc1ccc(-c2csc(N/N=C/c3cccnc3)n2)c(Cl)c1 | -11.9
O=C(OCc1nc2ccccc2s1)c1cccs1 | 2.91
O=C(CCCc1nc2ccccc2s1)NCc1ccc(F)cc1 | -37.4
COn1c(-c2ccc(Cl)cc2)nc2ncccc21 | 0.801
CN(CC(=O)Nc1ccc(N2CCOCC2)cc1)C(=O)c1ccc(O)c(Cl)c1 | 23.4
COc1cc(C)ccc1OCCCOc1cc(C)ccc1Cl | -13.9
CC1(c2ccccc2)NC(=O)N(CC(=O)Nc2cc3c(cc2Br)OCCO3)C1=O (centres unmarked) | -8.6
CCCCCCC(=O)NNC(=O)c1c(O)c2ccccc2n(CC)c1=O | -38
COc1cccc(N2CCN(C(=O)c3cc4c(OC)c(OC)c(OC)cc4[nH]3)CC2)c1 | 9.11
CCC(Sc1nc2ncccc2[nH]1)C(=O)NC1CCCC1 (centres unmarked) | 2.8
COc1ccc(N2CCN(C(=O)CN(c3ccccc3)S(C)(=O)=O)CC2)cc1 | -7.54
NC(=O)C1=C[C@@H](c2ccc(Br)cc2)C[C@@H](OCCCCO)O1 | -13.8
COc1cccc(N=NC2C(=O)N(C(N)=S)N=C2C)c1 (centres unmarked) | -10.3
CCc1cc2c(=O)[nH]c(Cc3ccc(OC)cc3)nc2s1 | 2.16
CC1Cc2cc(S(=O)(=O)N3CCC(C(=O)N4CCN(c5ccccc5F)CC4)CC3)ccc2N1C(=O)C1CC1 (centres unmarked) | -5.63
O=C(NC1CCCCC1)c1cc(S(=O)(=O)N2CCOCC2)ccc1Cl | -2.86
COc1ccc([C@H]2CC(=O)C=C(c3ccnc4ccc(Cl)cc34)C2)cc1 | -57.6
COc1cc(CSc2nc(-c3ccccc3)cc(=O)[nH]2)cc(OC)c1 | 13.4
Cc1cc2oc(=O)cc(C)c2cc1NC(=O)CCC(=O)O | 7.75

SMILES | hERG current change (%, negative = inhibition) at 10uM [%]
CCOc1ccc2nc(NC(=O)CSc3nc4c(c(=O)n(C)c(=O)n4C)n3CC)sc2c1 | -7.71
C=CCSc1nc(C)c(CCCC)c(=O)[nH]1 | -9.23
O=C(CCc1nc2ccccc2c(=O)[nH]1)NNC(=O)COc1ccc(Br)cc1 | 6.48
COc1cc(C(=O)N2CCN(C3CCCCC3)CC2)cc(OC)c1OC.O=C(O)C(=O)O | 2.07
CC(=O)NNc1cc(=O)c2c(=O)n(C)c(=O)n(C)c2[nH]1 | 21.9
O=C(COC(=O)c1cccc(S(=O)(=O)N2CCc3ccccc3C2)c1)NCc1ccco1 | -42.8
Cc1[nH]nc(NNC(=O)c2ccccc2)c1[N+](=O)[O-] | 11
Cc1c(C)n(CCO)c2ncnc(Nc3ccc(F)cc3)c12 | 9.16
O=C(NCc1ccccn1)c1ccc(OC2CCN(Cc3ccccc3)CC2)cc1 | -10.2
CC(C)Cc1cc(C(=O)N2CCN(c3ccc(F)cc3)CC2)no1 | -49.2
Cc1ccc(C(=O)OCC(=O)NCCC2=CCCCC2)cc1N | 0.786
Cc1ccc(S(=O)(=O)NC(CC(C)C)C(=O)NCC(c2ccco2)N2CCCCC2)cc1 (centres unmarked) | -2.3
O=C(CCc1c[nH]c2ccccc12)OCc1cccc(C(F)(F)F)c1 | 11.6
CCOc1ccc(C2/C(=C(\O)c3cccc(OC)c3)C(=O)C(=O)N2c2ccccn2)cc1OC (centres unmarked) | 11.8
C[C@@]12C(=O)N(CC3CC3)CC(=O)N1[C@H](/C=C/c1ccccc1)[C@@H]1C(=O)N(c3ccccc3)C(=O)[C@@H]12 | -8.29
CC1CC(C)CN(CC(=O)c2cccs2)C1 (centres unmarked) | -9.99
COCCNc1ccc(-c2nn(C)c(=O)c3ccccc23)cc1[N+](=O)[O-] | 15.2
O=c1c2ccccc2nc(/C=C/c2ccc([N+](=O)[O-])o2)n1CCCO | -51.7
O=C(N/N=C/c1ccsc1)c1ccc2ccccc2n1 | -2.2
C=CCn1c(O)c(C(=O)CCCCCC)c(=O)[nH]c1=O | 16.6
